Positions count from the first letter of the chain named. Numbers in names are those of the source.
T1: IL-10 receptor (IL-10R1 and IL-10R2 receptor chains) on mouse cells (mouse, UniProt Q61727 17-575; Q61190 20-349)
T1 sequence (looked up) 1: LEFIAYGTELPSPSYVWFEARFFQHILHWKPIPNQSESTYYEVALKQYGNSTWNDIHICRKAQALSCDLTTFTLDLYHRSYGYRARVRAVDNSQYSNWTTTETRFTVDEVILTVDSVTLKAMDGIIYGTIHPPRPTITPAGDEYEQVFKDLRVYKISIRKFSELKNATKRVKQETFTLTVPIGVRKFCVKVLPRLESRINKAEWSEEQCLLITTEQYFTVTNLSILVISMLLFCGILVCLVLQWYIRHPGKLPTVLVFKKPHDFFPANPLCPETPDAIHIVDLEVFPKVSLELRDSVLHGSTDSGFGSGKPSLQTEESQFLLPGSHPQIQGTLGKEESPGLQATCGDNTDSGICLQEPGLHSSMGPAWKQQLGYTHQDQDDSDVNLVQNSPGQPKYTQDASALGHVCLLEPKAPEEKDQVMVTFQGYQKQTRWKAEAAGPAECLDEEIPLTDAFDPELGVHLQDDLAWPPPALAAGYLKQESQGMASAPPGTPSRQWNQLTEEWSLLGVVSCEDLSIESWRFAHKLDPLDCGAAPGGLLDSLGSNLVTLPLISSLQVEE
T1 sequence (looked up) 2: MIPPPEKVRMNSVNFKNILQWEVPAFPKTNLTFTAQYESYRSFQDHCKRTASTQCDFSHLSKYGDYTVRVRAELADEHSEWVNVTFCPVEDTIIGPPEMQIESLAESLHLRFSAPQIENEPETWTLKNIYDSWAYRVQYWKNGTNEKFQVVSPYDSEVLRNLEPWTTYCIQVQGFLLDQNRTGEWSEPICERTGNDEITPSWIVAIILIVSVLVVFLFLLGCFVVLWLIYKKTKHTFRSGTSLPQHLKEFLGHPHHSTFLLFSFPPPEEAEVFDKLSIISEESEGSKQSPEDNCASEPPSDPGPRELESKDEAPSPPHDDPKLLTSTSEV

B1: (scIL-10:Fc), hinge truncation mutant 1 (Fc fusion)
chain: SPGQGTQSENSCTHFPGNLPNMLRDLRDAFSRVKTFFQMKDQLDNLLLKESLLEDFKGYLGCQALSEMIQFYLEEVMPQAENQDPDIKAHVNSLGENLKTLRLRLRRCHRFLPCENKSKAVEQVKNAFNKLQEKGIYKAMSEFDIFINYIEAYMTMKIRNGGSGGSPGQGTQSENSCTHFPGNLPNMLRDLRDAFSRVKTFFQMKDQLDNLLLKESLLEDFKGYLGCQALSEMIQFYLEEVMPQAENQDPDIKAHVNSLGENLKTLRLRLRRCHRFLPCENKSKAVEQVKNAFNKLQEKGIYKAMSEFDIFINYIEAYMTMKIRNS[human IgG1 Fc cut from this listing]
B2: Unsubstituted scIL-10 (5 aa linker):CL:CH1:Fc (Fc fusion)
chain: SPGQGTQSENSCTHFPGNLPNMLRDLRDAFSRVKTFFQMKDQLDNLLLKESLLEDFKGYLGCQALSEMIQFYLEEVMPQAENQDPDIKAHVNSLGENLKTLRLRLRRCHRFLPCENKSKAVEQVKNAFNKLQEKGIYKAMSEFDIFINYIEAYMTMKIRNGGSGGSPGQGTQSENSCTHFPGNLPNMLRDLRDAFSRVKTFFQMKDQLDNLLLKESLLEDFKGYLGCQALSEMIQFYLEEVMPQAENQDPDIKAHVNSLGENLKTLRLRLRRCHRFLPCENKSKAVEQVKNAFNKLQEKGIYKAMSEFDIFINYIEAYMTMKIRNGGGGSGGGGSRTVAAPSVFIFPPSDEQLKSGTASVVCLLNNFYPREAKVQWKVDNALQSGNSQESVTEQDSKDSTYSLSSTLTLSKADYEKHKVYACEVTHQGLSSPVTKSFNRGECGGGGSGGGGSGGGGSGGGGSASTKGPSVFPLAPSSKSTSGGTAALGCLVKDYFPEPVTVSWNSGALTSGVHTFPAVLQSSGLYSLSSVVTVPSSSLGTQTYICNVNHKPSNTKVDKRV[human IgG1 Fc cut from this listing]
B3: M22A:linker:D41F (R1 + R2 mutant), SEQ ID NO: 26 (Fc fusion)
chain: SPGQGTQSENSCTHFPGNLPNALRDLRDAFSRVKTFFQMKFQLDNLLLKESLLEDFKGYLGCQALSEMIQFYLEEVMPQAENQDPDIKAHVNSLGENLKTLRLRLRRCHRFLPCENKSKAVEQVKNAFNKLQEKGIYKAMSEFDIFINYIEAYMTMKIRNGGSGGGGSGGSPGQGTQSENSCTHFPGNLPNMLRDLRDAFSRVKTFFQMKDQLDNLLLKESLLEDFKGYLGCQALSEMIQFYLEEVMPQAENQDPDIKAHVNSLGENLKTLRLRLRRCHRFLPCENKSKAVEQVKNAFNKLQEKGIYKAMSEFDIFINYIEAYMTMKIRNGGGGSGGGGSRTVAAPSVFIFPPSDEQLKSGTASVVCLLNNFYPREAKVQWKVDNALQSGNSQESVTEQDSKDSTYSLSSTLTLSKADYEKHKVYACEVTHQGLSSPVTKSFNRGECGGGGSGGGGSGGGGSGGGGSASTKGPSVFPLAPSSKSTSGGTAALGCLVKDYFPEPVTVSWNSGALTSGVHTFPAVLQSSGLYSLSSVVTVPSSSLGTQTYICNVNHKPSNTKVDKRV[human IgG1 Fc cut from this listing]
B4: M22A:linker:D41F (R1 + R2 mutant), SEQ ID NO: 29 (Fc fusion)
chain: B3 chain with F41D, D211F
B5: D41F:linker:M22A (R1 + R2 mutant) (Fc fusion)
chain: B3 chain with A22M, M192A
B6: M22A:linker:M22A, D41F (R1 + R2 triple mutant) (Fc fusion)
chain: B3 chain with F41D, M192A, D211F
B7: M22A, D41F:linker:M22A (R1 + R2 triple mutant) (Fc fusion)
chain: B3 chain with M192A
B8: wtIL-10:linker:M22A, D41F (R1 + R2 mutant) (Fc fusion)
chain: B3 chain with A22M, F41D, M192A, D211F
B9: Unsubstituted scIL-10 (5 aa linker) Fc (Control) (Fc fusion)
chain: SPGQGTQSENSCTHFPGNLPNMLRDLRDAFSRVKTFFQMKDQLDNLLLKESLLEDFKGYLGCQALSEMIQFYLEEVMPQAENQDPDIKAHVNSLGENLKTLRLRLRRCHRFLPCENKSKAVEQVKNAFNKLQEKGIYKAMSEFDIFINYIEAYMTMKIRNGGSGGSPGQGTQSENSCTHFPGNLPNMLRDLRDAFSRVKTFFQMKDQLDNLLLKESLLEDFKGYLGCQALSEMIQFYLEEVMPQAENQDPDIKAHVNSLGENLKTLRLRLRRCHRFLPCENKSKAVEQVKNAFNKLQEKGIYKAMSEFDIFINYIEAYMTMKIRN[human IgG1 Fc with C220S (EU numbers) cut from this listing]
B10: scIL-10:CL:CH1:Fc (scIL10 3aa linker) (Fc fusion)
chain: SPGQGTQSENSCTHFPGNLPNMLRDLRDAFSRVKTFFQMKDQLDNLLLKESLLEDFKGYLGCQALSEMIQFYLEEVMPQAENQDPDIKAHVNSLGENLKTLRLRLRRCHRFLPCENKSKAVEQVKNAFNKLQEKGIYKAMSEFDIFINYIEAYMTMKIRNGGGSPGQGTQSENSCTHFPGNLPNMLRDLRDAFSRVKTFFQMKDQLDNLLLKESLLEDFKGYLGCQALSEMIQFYLEEVMPQAENQDPDIKAHVNSLGENLKTLRLRLRRCHRFLPCENKSKAVEQVKNAFNKLQEKGIYKAMSEFDIFINYIEAYMTMKIRNGGGGSGGGGSRTVAAPSVFIFPPSDEQLKSGTASVVCLLNNFYPREAKVQWKVDNALQSGNSQESVTEQDSKDSTYSLSSTLTLSKADYEKHKVYACEVTHQGLSSPVTKSFNRGECGGGGSGGGGSGGGGSGGGGSASTKGPSVFPLAPSSKSTSGGTAALGCLVKDYFPEPVTVSWNSGALTSGVHTFPAVLQSSGLYSLSSVVTVPSSSLGTQTYICNVNHKPSNTKVDKRV[human IgG1 Fc cut from this listing]

Each binder was assayed against T1, IL-10 receptor (IL-10R1 and IL-10R2 …) (assay: cell-based or functional assay).

| EC50, proliferation of mouse mast cell line MC/9 [pM] | IC50, inhibition of TNFα production in LPS-stimulated C57BL/6 mouse PBMCs (PBMC + LPS) [pM] | Binder |
| --- | --- | --- |
| 494 | 0.06 | B1 |
| 0.6 | 0.007 | B2 |
| 987 | 2.1 | B3 |
|  | 4.4 | B4 |
|  | 8.9 | B5 |
|  | 502 | B6 |
|  | 65 | B7 |
| 6590 | 2.6 | B8 |
| 409 | 0.08 | B9 |
| 1.5 | 0.03 | B10 |
